The values below come from ChEMBL document CHEMBL1201862, “PubChem BioAssay data set” (2004).

Molecules are shown by their SMILES.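 Method: 48-hour compound exposure of cells in 96-well plates, five concentrations, linear interpolation of endpoints. GI50 is the concentration that inhibits growth by half.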 Activity calls are given as the source filed them. Cut-off read from the data, not from the text of the source: active = GI50 up to about 1.1 µM and inactive = higher. Some results are limits rather than exact numbers.

This experiment relates to NCI-H322M. Nature of the experiment: NCI-60 cell line screen, 48 h.
With `COc1ccc(-c2c(C#N)c(N)nc(S)c2C#N)cc1`, the GI50 is inactive: 61 µM.

As to `CC12CCC3c4ccc(O)cc4CCC3C1C/C(=N\O)C2O` (configuration not stated), the GI50 is inactive: > 100 µM. With `N#C/C(=C\NC(=S)c1ccncc1)c1nc2ccccc2s1`, the GI50 was inactive: > 100 µM. For `Nc1nc(N)c2cc(Sc3ccc4ccccc4c3)ccc2n1`, the GI50 was inactive: 1.6 µM. Take `CC1CC2=Nc3ccccc3NC(c3ccccc3)C2=C(O)O1` (configuration not stated): the GI50 was inactive: > 100 µM. Regarding `O=C(Nc1ccc([N+](=O)[O-])cc1)Nn1cnnc1`, the GI50 was inactive: > 100 µM. As to `CC(C)(Oc1ccc(-c2cccc3ccccc23)cc1)C(=O)O`, the GI50 is inactive: > 100 µM. The figure for `[O-]c1c[n+](-c2ccccc2)no1` is inactive: > 100 µM; for `O=C(CC(O)c1cccnc1)CC(O)c1cccnc1` (configuration not stated) it is inactive: 17.2 µM. As for `COc1cc2c(c(OC)c1OC)-c1ccc(SC)c(=O)cc1[C@@H](O)CC2`, the GI50 was active: 0.000635 µM. The figure for `c1cc2c(cc1NC1=NCCO1)CCCC2` is inactive: 4.25 µM; for `Cc1ccc(NC(=O)COc2ccc(Cl)cc2)cc1Cl` it is inactive: > 100 µM.

For the compound `CCOC(=O)NC(C(F)(F)F)(C(F)(F)F)P(=O)(OCC(C)C)OCC(C)C`, the GI50 was inactive: 60.1 µM. `C/C(=N\NC(=S)N1CCN(c2ccccn2)CC1)c1nccs1`: the GI50 is active: 0.925 µM. To `N#CCCN(CCC#N)c1ccc(/C=C2\N=C(CN3C(=O)c4ccccc4C3=O)OC2=O)cc1` belongs inactive: > 100 µM; to `COC(=O)/C=C1\C(=O)Nc2ccc(Br)cc21`, inactive: 2.04 µM. The figure for `COC(=O)N/N=C(\Cc1ccccc1)CN(C)C` is inactive: > 100 µM; for `Cc1ccc2c(c1)C/C(=C\c1ccccc1C(=O)O)C2=O` it is inactive: > 100 µM; for `COc1cc(C/N=c2/nc(N(C)C)ss2)cc(OC)c1OC` it is inactive: > 10 µM. As to `O=C1CC(O)c2cscc21` (configuration not stated), the GI50 was inactive: > 100 µM.

`CCc1cccc(CC)c1NC1=CC(=O)C(=O)c2ccccc21`: the GI50 was inactive: 17 µM. The figure for `CCN1C2=NC(=O)N(C)C(=O)C2(Cl)C(C(SC)S(=O)(=O)c2ccc(C)cc2)c2ccccc21` (configuration not stated) is inactive: 86.3 µM. For `COc1cc(S(=O)(=O)Nc2nc(-c3ccc(N4C(=O)C(CC(=O)O)SC4c4cccs4)cc3)cs2)ccc1Cl` (configuration not stated), the GI50 was inactive: > 100 µM.

Consider `CC1=CC(O)CC(C)(C)C1/C=C/C(C)=C/C=C/C(C)=C/C=C/C=C(C)/C=C/C=C(C)/C=C/C1=C(C)CC(O)CC1(C)C` (configuration not stated), for which the GI50 is inactive: > 100 µM. `CC(=O)c1ccc(N2CCN(C3=C(Cl)C(=O)c4c(O)ccc(O)c4C3=O)CC2)cc1`: the GI50 is inactive: 13.7 µM.

Consider `O=C(N/N=C\c1ccccc1)Nc1cccc2ccccc12`, for which the GI50 was inactive: 57.9 µM. Consider `O=C1/C(=C/c2ccccc2[N+](=O)[O-])N=C(c2ccccc2)N1C1Nc2cc3c(cc2S1)NC(N1C(=O)/C(=C/c2ccccc2[N+](=O)[O-])N=C1c1ccccc1)S3` (configuration not stated), for which the GI50 was inactive: 53.3 µM. On to `N#Cc1nc(-c2cccs2)oc1N`, for which the GI50 was inactive: > 100 µM. Regarding `CCC1CCc2c(c(=O)oc3c2cc(OC)c2cccc(OC)c23)C1` (configuration not stated), the GI50 is inactive: > 100 µM. As to `CC1NC(=O)c2c(-c3ccccc3)nn(-c3ccccc3)c2NC1=O` (configuration not stated), the GI50 is inactive: > 100 µM. For `CC1=CC(C)(C)N=C2SC(c3ccc(N)cc3)=NN12`, the GI50 was inactive: > 100 µM. `N#Cc1cnc(N)nc1NCC1(CO)CC(CCc2ccccc2)C1` (configuration not stated): the GI50 was inactive: > 100 µM. The figure for `CC(=O)Nn1cnc(C(=N)C#N)c1N` is inactive: > 100 µM; for `COC12CCCN1c1ccn(Cc3ccccc3)c(=O)c1C2=O` (configuration not stated) it is inactive: > 100 µM. The figure for `CC12CC(=O)C3C(C(=O)C1)C32C` (configuration not stated) is inactive: > 100 µM. As for `CC(=O)OCC1OC(n2c(C)c(C(C)=O)c(-c3ccco3)c(C#N)c2=S)C(OC(C)=O)C(OC(C)=O)C1OC(C)=O` (configuration not stated), the GI50 was inactive: > 100 µM.

On to `O=C1CSC(/C=C/c2ccccc2)N1c1ccc(-n2c(-c3ccccc3)nc3ccccc3c2=O)cc1` (configuration not stated), for which the GI50 was inactive: 9.29 µM. On to `COc1c(OC(C)=O)cc2c(OC(C)=O)c1CC(C)CC(OC)C(O)C(C)/C=C(\C)C(OC(N)=O)C(OC)/C=C\C=C(/C)C(=O)N2` (configuration not stated), for which the GI50 is inactive: > 100 µM. For `COc1ccc(N2C(=O)CSC2c2c[nH]c3ccccc23)cc1` (configuration not stated), the GI50 is inactive: 87.5 µM. With `NC(=O)C12CCC1C1CCCCC12N1CCOCC1` (configuration not stated), the GI50 is inactive: > 100 µM.

Take `O=[N+]([O-])/C(C(Cl)=C(Cl)Cl)=C(/Br)SCc1ccccc1`: the GI50 is inactive: 17.7 µM. As to `CC1=NN(C(=O)Cc2ccccc2)C(=O)/C1=C\c1ccccc1O`, the GI50 was inactive: > 100 µM. To `O=C(O)C/C=C/CC(=O)O` belongs inactive: > 100 µM; to `CN(NC(=O)/C(=C/c1ccc(Cl)cc1)NC(=O)c1ccccc1)c1cn[nH]c(=O)c1Cl`, inactive: > 100 µM. In the case of `O=C1c2ccccc2C(=O)c2[nH]c(Cc3ccccc3F)nc21`, the GI50 was inactive: > 100 µM. For the compound `O=C(NCCO)c1cc2c(cn1)[nH]c1ccccc12`, the GI50 was inactive: > 100 µM. To `C[C@]12CC[C@H]3[C@@H](CCC4=CC(=O)CC[C@@]43C)[C@@H]1CC[C@@H]2OC(=O)c1cccc2c(=O)c3ccccc3[nH]c12` belongs inactive: 19.1 µM. In the case of `COc1ccc(S(=O)(=O)n2c3c(c4ccccc42)[C@@H]2[C@@H](CCCN2C(=O)C[S+]([O-])c2ccc(C)cc2)[C@H](Cl)C3)cc1` (some centres not stated), the GI50 was inactive: > 100 µM.

In the case of `CCOC(=O)c1ccc(N2C(=O)/C(=C\OC)c3ccccc3C2=O)cc1`, the GI50 is inactive: 58.7 µM. Regarding `O=C(CCN(C(=O)O)S(=O)(=O)c1ccc(NC(=O)c2ccccc2)cc1)NC1CCCCC1`, the GI50 was inactive: > 100 µM. In the case of `C(=N\c1nc2cc3sc(/N=C/c4cccs4)nc3cc2s1)/c1cccs1`, the GI50 is inactive: > 100 µM.

`O=C(CCC(=O)C1CCC/C1=N/O)Nc1ccc(Cl)cc1` (configuration not stated): the GI50 is inactive: > 100 µM.

On to `OCCN(CCO)c1ccc2c(c1)Cc1ccccc1-2`, for which the GI50 was inactive: 36.3 µM. As for `CCc1n[nH]c(=O)n1N=C(c1ccccc1)c1ccccc1`, the GI50 is inactive: > 100 µM. For `COC(=O)CCC(NC(=O)C(C)NC(=O)COC1C(O)C(OC(=O)CCNc2c3ccccc3nc3cccc([N+](=O)[O-])c23)OC(OCc2ccccc2)C1NC(C)=O)C(N)=O` (configuration not stated), the GI50 was inactive: > 10 µM. As to `Cn1c(=O)c2nc(N3CCCCC3)cnc2n(C)c1=O`, the GI50 was inactive: > 100 µM. With `CC(C)C1CC(CO)(CNc2nc(N)nc(Cl)c2/C=N\O)C1` (configuration not stated), the GI50 is inactive: 3.36 µM.

As for `CC(=O)C(C(C)=O)[C@@H]1OC(C)(C)O[C@@H]1[C@H]1COC(C)(C)O1`, the GI50 was inactive: 35.4 µM.

For the compound `COC(=O)CCC(=O)Nc1cc(Cl)ccc1Cl`, the GI50 was inactive: > 100 µM. For the compound `Cc1ccc(-c2nnc(SCC(=O)O)[nH]2)cc1`, the GI50 was inactive: > 100 µM. Turning to `O=C(O)/C(=C/c1c(O)ccc2ccccc12)c1csc(-c2nc(/C(=C\c3c(O)ccc4ccccc34)C(=O)O)cs2)n1`, the GI50 is inactive: 14.4 µM. The figure for `CC(N)C(C)Cc1ccccc1` (configuration not stated) is inactive: > 100 µM. To `CC(C)(C)/C(O)=C\c1nc2ccc(C(F)(F)F)cc2[nH]c1=O` belongs inactive: > 100 µM; to `COc1ccc2nc3c(C(=O)NCCN(C)C)cccc3cc2c1`, inactive: 2.07 µM; to `COc1ccc(/C=C2\CCC(C)/C(=C\c3ccc(OC)c(OC)c3)C2=O)cc1OC` (configuration not stated), inactive: 12.3 µM. On to `COc1ccc(N2C(=O)CC(=O)N(C(=O)CCCCCCCCC(=O)N3C(=O)CC(=O)N(c4ccc(OC)cc4)C3=S)C2=S)cc1`, for which the GI50 was inactive: > 100 µM. Turning to `CC1=C(C(=O)NCCc2ccccc2)CC(C(=O)NCCc2ccccc2)=C(C)N1`, the GI50 was inactive: > 100 µM. To `COc1ccc(C(=O)C(C(=O)C(=O)NC2C3CC4CC(C3)CC2C4)c2ccc(OC)cc2)cc1` (configuration not stated) belongs inactive: > 100 µM. As for `CC(C)CC(N)C(=O)Nc1ccc2ccccc2c1` (configuration not stated), the GI50 is inactive: > 100 µM. In the case of `COC(=O)C(CCC1CC(OC)N(C(=O)OCc2ccccc2)C1)/N=C/c1ccccc1` (configuration not stated), the GI50 is inactive: > 100 µM.

As for `CC1=C(/C=C/C(C)=C/C=C/C(C)=C/C(=O)OC2CC(n3cc(F)c(=O)[nH]c3=O)OC2CO)C(C)(C)CCC1` (configuration not stated), the GI50 is inactive: 2.63 µM. In the case of `COC(=O)c1ccccc1/C=C1\Cc2c(ccc3c2CCC3)C1=O`, the GI50 was inactive: > 100 µM. `Cc1nn2c(C(=O)N/N=C/c3ccc([N+](=O)[O-])cc3)c(C)nc2s1`: the GI50 is inactive: > 100 µM. For `CCOc1cc(NC(C)=O)ccc1C(=O)N/N=C/c1ccco1`, the GI50 is inactive: > 100 µM. The figure for `CC1C(=O)OCC2=CCN3CCC(OC(=O)C(C)C1(C)O)C23` (configuration not stated) is inactive: > 100 µM; for `CCN1CCC(O)(c2ccc(O)cc2)C(C(=O)c2ccc(O)cc2)C1` (configuration not stated) it is inactive: > 100 µM; for `OCCOCCN1CCN(CCCN2c3ccccc3Sc3ccc(C(F)(F)F)cc32)CC1` it is inactive: 13.1 µM. Turning to `CC(=O)O[C@H]1C(=O)[C@@]2(C)[C@H]([C@H](OC(=O)c3ccccc3)[C@]3(O)C[C@H](OC(=O)[C@H](O)[C@@H](NC(=O)c4ccco4)c4ccccc4)C(C)=C1C3(C)C)[C@]1(OC(C)=O)CO[C@@H]1C[C@@H]2O`, the GI50 was active: < 0.00125 µM. Consider `NC(N)=NN/C(=C1/N=c2ccc([N+](=O)[O-])cc2=NC1=O)C(O)c1ccco1` (configuration not stated), for which the GI50 was inactive: > 100 µM. Consider `Cc1cc(CC(=O)NCCO)n(CCO)c(=O)c1`, for which the GI50 was inactive: > 100 µM. As to `COc1ccc(/C=C2\CCC(CCN(C)C)(C3=CCCC3)C2=O)cc1` (configuration not stated), the GI50 was inactive: 17.7 µM.

As for `Cn1c(=O)nc2n(-c3ccc(O)cc3)c3ccccc3nc-2c1=O`, the GI50 was inactive: > 100 µM.
